{
  "source": "patent US20020086278A1",
  "about": "“CHROMOGENIC MEDIA CONTAINING BLOOD OR HEMIN” (priority 1999, published 2002)",
  "tested_on": "E. coli (non-O157) (esco)",
  "format": "cell-based",
  "set-up": "key: + = color detected; v = color varied slightly with strain; 0 = no color detected; < = decreased growth vs. control",
  "note": "Counter-ions that a name gives are not always drawn.",
  "data": [
    {"smiles": "O=P(O)(O)Oc1c[nH]c2cc(Cl)c(Br)cc12", "note": "[Mag-Phos, 5-Br-6-Cl-3-indolyl-phosphate, p-touidine salt]", "values": [
      {"measurement": "Colony Color (Summary)", "value": "v"}
    ]}
  ]
}
